In all, about 48,000 compounds went through this assay and about 450 (0.94%) were called active. Inconclusive results (about 19%) are left out. The call rests on the fitted dose curve; in most records, active means well fitted inhibition curve with a large enough effect; inconclusive means small, poorly fitted or top-dose-only effect; inactive means no such curve, though single readings can be large or run the other way. This is one part of the list.
Assay: Primary qHTS for Identification of Small Molecule Inhibitors of Huntingtin Promoter Activity; further: nearly all actives have a fitted effect of over 50% in size
Conditions: HEK293 HTT promoter firefly luciferase reporter (activity 0% = vehicle and -100% = no light), 24 h; series mostly up to 57.5 µM; activity change, negative = inhibition: at the top concentration
Summary of the method: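 Firefly luciferase readout (Dual-Glo, 10 min RT) after 24 h, 37 °C compound exposure (final up to 57.5 uM) of HEK293 reporter cells cultured 24 h beforehand; PTC124 at 50 uM final as control inhibitor; activity scaled vehicle 0%, zero RLU -100%.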

Activity change, negative = inhibition, inactive:
Cc1ccc(NC(=O)Cn2nnc(C(=O)NCc3ccc4c(c3)OCO4)c2N)cc1Cl -16.2%
Cc1cc(C)cc(NC(=O)CCCc2nc(-c3ccccc3Cl)no2)c1 -21.3%
CSc1nc2sc3c(c2c(=O)n1-c1ccccc1)CCC(C(C)(C)C)C3 (configuration not stated) -2.62%
CC(=O)c1ccc(OCC(=O)N2CCCCC2)cc1 7.7%
Cn1c(=O)n(CCCc2ccccc2)c(=O)c2c1nc1n2CCN1c1ccc(F)cc1 -13.9%
CCOC(=O)c1cc2c(=O)n3ccccc3nc2n(Cc2ccco2)c1=NC(=O)c1ccc(OCC)cc1 -18.6%
CCOCC(O)COc1ccc(NC(=O)CC[S+](C)C)cc1 (configuration not stated)
CCCCOC(=O)c1ccc(NC(=O)c2cnc3ccc(C)cn3c2=O)cc1 -20.2%
CCN(c1cccc(C)c1)c1ncnc2c1cnn2-c1cccc(Cl)c1 -4.59%
CCn1c(=O)cc(OCC(=O)N2CCN(c3ccc(F)cc3)CC2)c2ccccc21 -6.3%
Cc1nn(C(=O)c2ccc(Br)cc2)c(C)c1Sc1ccccc1 -25.9%
COc1cc(OC)c(N(C)C(=O)c2sc3nc4n(c(=O)c3c2C)CCCC4)cc1Cl -10.7%
Cc1ccc(NC(=O)Cn2c(=O)n(Cc3nc(-c4ccccc4)no3)c(=O)c3cc4c(cc32)OCO4)c(C)c1 2.64%
COc1ccc(CCNC(=O)CSc2n[nH]c(-c3ccccc3Cl)n2)cc1OC -9.73%
COc1ccc(Cl)cc1NC(=O)CSC1=Nc2ccccc2C2=NC(CC(=O)NCc3cccs3)C(=O)N12 (configuration not stated) -27.1%
O=C(NCc1ccccc1)c1cnc(N2CCCCC2)c2ccccc12 6.09%
COc1cccc(Nc2nc3ccc(C)cc3nc2-n2nc(C)cc2C)c1 6.28%
COc1ccc(Nc2c(-c3ccccn3)nc3ccc(Cl)cn23)cc1 -6.95%
Cc1ccc(NC(=O)C2=CC(c3ccc4c(c3)OCO4)=NS(=O)(=O)N2C)cc1 -9.1%
CCc1ccc(-n2c(=O)c3cccnc3n2CC(=O)NCc2ccc(C)cc2)cc1 -8.68%
Cc1ccc(C(c2sc3nc(-c4ccco4)nn3c2O)N2CCC3(CC2)OCCO3)cc1 (configuration not stated) 18%
Cc1ccc(NC(=O)CSc2nc(-c3ccccc3Cl)nc3cc(=O)[nH]n23)c(C)c1 -17.1%
CCc1cccc(Nc2ncnc3onc(-c4ccc(F)cc4)c23)c1 -22.5%
O=C(CSc1nc(-c2ccc(F)cc2)cc(C(F)(F)F)n1)NCCc1ccccc1 -30.4%
COc1cccc(N2CCN(S(=O)(=O)c3ccc(-c4ccno4)cc3OC)CC2)c1 4.34%
O=C(CSc1cn(CC(=O)N2CCCCC2)c2ccccc12)Nc1ccc(C(F)(F)F)cc1 41.2%
COc1ccc(OC)c(C2NC(=O)NC(C)=C2C(=O)Nc2ccc(F)cc2)c1 (configuration not stated) -11.3%
CN1CCN(CCOc2cc(OC3CCOCC3)c3c(Nc4c(Cl)ccc5c4OCO5)ncnc3c2)CC1 -3.06%
Cc1ccc(C(=O)NCc2ccc(F)cc2)cc1NC(=O)c1nsc2ccccc12 -9.96%
CCN(CC)CCNC(=O)c1sc2ncccc2c1-n1cccc1 0%
Cn1cc(S(=O)(=O)c2ccccc2)c(=O)c2cc(F)c(N3CCCCCC3)cc21 -25%
Cc1cc(C)cc(-n2c(SCC(=O)Nc3ccc4c(c3)OCCO4)nc3c([nH]c4ccccc43)c2=O)c1 -19.4%
CC1=C(c2ccc(C)c(C)c2)S(=O)(=O)N=C1N1CCC(C(=O)NC(C)Cc2ccco2)CC1 (configuration not stated) -21.5%
COc1ccc(C)cc1-n1cnc2cc(C(=O)NC3CCCC3)ccc21 -20.2%
Cc1ccc(NC(=O)c2ccc(NC(=O)N3CCSc4ncccc43)cc2)c(C)c1 -14.8%
Cc1cc(C(=O)Nc2c(C)nc3ccccn3c2=O)ccc1[N+](=O)[O-] -12.8%
O=C(CSc1nc2c([nH]c3ccccc32)c(=O)n1-c1ccc(Cl)cc1)NCC1CCCO1 (configuration not stated) -9.5%
CCOc1ccc(/C=C/c2nc(C#N)c(NCCc3ccccc3)o2)cc1 -12.9%
COc1ccccc1NC(=O)Cn1c(=O)n(CCCCCC(=O)NCc2ccccc2)c(=O)c2sccc21 -11.8%
COC(=O)C(c1ccccc1Cl)N1CCc2sccc2C1 (configuration not stated) -7.54%
COc1cccc(C(=O)Nc2ccccc2-c2nnc(-c3cccc(OC)c3)o2)c1 21.5%
CC(=O)Nc1ccc(S(=O)(=O)NC2(C(F)(F)F)NC(=O)N(CCc3ccc(F)cc3)C2=O)cc1 (configuration not stated) -15.2% [at 11.5 µM]
Cc1ccc(-n2c(SCC(N)=O)nc3c(oc4ccccc43)c2=O)cc1C -5.91%
CCOCCCn1c(=N)c(C(=O)NCC2CCCO2)cc2c(=O)n3cccc(C)c3nc21 (configuration not stated) -5.53%
Cc1ccc(C)c(N2CCN(Cc3csc(C)c3)CC2)c1 -21.9%
Nc1ccc(S(=O)(=O)Nc2ccnn2-c2ccccc2)cc1
COC(=O)C1=C(c2ccccc2)c2ccccc2S(=O)(=O)N1CC(=O)Nc1ccccc1Cl -17.8%
COC(=O)C1CCN(S(=O)(=O)c2cc3c4c(c2)CC(=O)N4CCC3)CC1 -20%
CCCN(CCC)CCCNC(=O)Cn1cnc2sc(C)c(S(=O)(=O)N3CCC(C)CC3)c2c1=O -9.09%
O=C(Nc1cccc(F)c1)c1ccc(-c2ccccc2)s1 27.8%
CCN(C)C(=O)Oc1cccc([C@H](C)N(C)C)c1
COc1ccc2c(c1)NC(c1cccnc1)=NC(c1ccc(F)cc1)=N2 26.8%
Cc1ccc(S(=O)(=O)c2cn(Cc3ccccc3Cl)c3ccc(F)cc3c2=O)cc1 -12.6%
COc1ccc(Br)cc1CNC(=O)c1ccc2c(c1)N(Cc1ccc(C)cc1)CCS2 -22.4%
Cc1ccc(CN2C(=O)c3ccccc3Sc3ccc(C(=O)OCc4ccco4)cc32)cc1 -27.4%
Cc1ccc(C)c(CN2C(=O)c3ccccc3S(=O)(=O)c3ccc(C(=O)NCc4ccccc4)cc32)c1 -16.3%
CCCN1CCc2nc(N3CCN(c4ncccn4)CC3)ncc2C1 3.11%
Cc1cccc(OCCCn2c(CCNC(=O)C(C)(C)C)nc3ccccc32)c1 -2.91%
CCn1cc2nc(SCc3cc(C)ccc3C)n(Cc3ccc(OC)cc3)c(=O)c2n1 -24.6%
Cc1cccc(OCCSc2nc3ccc(NC(=O)COc4ccccc4)cc3s2)c1 3.05%
Cc1ccc2c(=O)c(C(=O)c3ccc(F)cc3)cn(CC(=O)NCCc3ccccc3)c2n1 5.24%
CCOCCCNC(=O)C(=O)Nc1c2c(nn1-c1ccc(OC)cc1)CSC2 -16.8%
CCOc1ccc(C(=O)Nc2ccc3oc(-c4cccnc4)nc3c2)cc1 -8.67% [at 11.5 µM]
Cc1c(C(=O)NCc2ccccc2Cl)sc2nc[nH]c(=O)c12 17.7%
Cc1ccc(-n2nc3c(=O)n(CCCC(=O)NCc4ccccc4F)nc(C)c3c2C)cc1 -18.5%
Cc1csc2nc(COC(=O)CNC(=O)c3ccccc3Cl)cc(=O)n12 8.04%
O=C(Nc1c(C(=O)N2CCN(c3ccccc3F)CC2)oc2ccccc12)c1ccccc1F -29.9%
O=C(CN1CCCN(Cc2ccc(F)cc2)S1(=O)=O)NCc1ccccc1Cl -19%
CN1CCN(CCCNC(=O)c2ccc3nc(Cc4ccccc4)oc3c2)CC1 -8.36%
CCn1cc(C(=O)NCc2ccc(C)cc2)c(=O)c2cc(S(=O)(=O)N3CCc4ccccc4C3)ccc21 -0.689%
N#Cc1ccccc1NC(=O)c1cnc(N2CCOCC2)c2ccccc12 -4.28%
CCC(=O)N1CCc2cc(Br)cc(S(=O)(=O)CCC(=O)NCc3ccc(F)cc3)c21 -8.41%
CC(=O)N1CCOc2cc(S(=O)(=O)N(C)Cc3ccccc3)c(Cl)cc21 -18.1%
COc1ccccc1-c1nnc(C2CCN(C(=O)c3ccc(Cl)cc3)CC2)o1 -12.2%
Cc1ccc(Cn2c(CNC(=O)c3cccc(C)c3)nc3ccccc32)cc1 -12.4%
COc1cccc2c1Oc1ncccc1N(C(=O)CCC(=O)NCc1ccc(C)cc1)C2 -2.57%
Cn1nnnc1SCCCNCc1cccc(OCc2ccccc2Cl)c1 -13.9%
CCOc1ccccc1NC(=O)Cn1c2ncccc2c(=O)n1-c1ccc(C)c(C)c1 -14.7%
CCC(=O)c1c(O)cc(O)cc1O 2.95%
Cc1oc(-c2ccc(C(=O)Nc3ccccc3F)cc2)nc1COc1ccccc1 -26%
COc1ccc(C)cc1NC(=O)CSc1nc(=O)n(Cc2ccccn2)c2c1CCC2 -5.08%
CC(=O)N1CCCc2cc(S(=O)(=O)Nc3ccc(C)c(F)c3)ccc21 -29.8%
Cc1oc2c(c(C)cc3oc(=O)c(CC(=O)NCc4ccc(F)cc4)c(C)c32)c1C -0.847%
Cc1cccc(C)c1NC(=O)CN1C(=O)c2cccc3cccc1c23 -21.4%
CCOc1ccc(NC(=O)CN2C(=O)C3(SCC(=O)N3c3ccc(F)cc3)c3ccccc32)cc1 (configuration not stated) -12.4%
CCc1nn(CC(=O)N2CCN(c3cccc(C(F)(F)F)c3)CC2)c(=O)c2cccn12 -16%
CCCCN(C)C(=O)Cn1c(SCC(=O)Nc2ccc(C)c(C)c2)nc2ccccc21 -30.4%
CCOC(=O)C1(C)C=C(Nc2ccc(C(=O)O)cc2)C(=O)N1c1ccc(C(=O)O)cc1 (configuration not stated) -5.8%
Cc1nc2ccccc2n1CCc1nc2c3ccccc3nc(SCc3ccc(F)cc3)n2n1 -9.33%
CC1Cc2ccccc2N1NC(=O)c1ccc(Cl)c(S(N)(=O)=O)c1 (configuration not stated)
COc1ccc2c(c1)c1c(c(=O)n(-c3ccccc3C)c(=O)n1Cc1c(F)cccc1Cl)n2C -7.67%
CCOC(=O)c1c(C)oc2nc(C)nc(NCC3CCN(Cc4cccc(Cl)c4)CC3)c12 -19.2%
Cc1cccc(NC(=O)C2CCCN(c3nc4ccccc4s3)C2)c1C (configuration not stated) -4.45%
CCOC(=O)C1CCCN(C(=O)Cn2nc(CC)n3c(cc4occc43)c2=O)C1 (configuration not stated) -15.8%
Cc1ccc(CCNC(=O)c2ccc(CS(=O)(=O)Cc3ccccc3F)o2)cc1 -0.235%
CCOc1ccccc1NC(=O)CN1C=NS(=O)(=O)c2ccccc21 -16.9%
COc1cccc2cc(-c3nc(-c4ccc(C)cc4)c(C)s3)c(=O)oc12 -4.84%

Reference: PubChem BioAssay AID1508623 (National Center for Advancing Translational Sciences (NCATS), 2021)
